From PubChem BioAssay AID485281 (National Center for Advancing Translational Sciences (NCATS), 2010)
Out of some 350,000 compounds screened, about 260 (0.074%) were called active. This list was built around the results that the source calls inconclusive (neither active nor inactive); the mix of calls is not that of the screen. Calls follow the shape of the dose curve; as a rule, active = well fitted inhibition curve with a large enough effect; inconclusive = small, poorly fitted or top-dose-only effect; inactive = no such curve, though single readings can be large or run the other way. A potency beside an inconclusive call is a rough fit, not a confirmed value.

Molecular target: Ferritin light chain (Equus caballus) (UniProt P02791)
Assay: qHTS Assay for Identification of Novel General Anesthetics; also: nearly all actives have a fitted effect of over 20% in size
Conditions: apoferritin/1-aminoanthracene competitive binding, fluorescence; series mostly up to 77.5 µM
Procedure, shortened: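 Horse-spleen apoferritin (10 uM) in 50% saturated 1-aminoanthracene in PBS was incubated 10 min at room temperature with compound. Fluorescence (ex 380, em 535 nm) was normalized to free and bound 1-AMA, with concentration-response fitted by a four-parameter Hill equation.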
Potency is read from the fitted curve at half-maximal effect; tags tell the direction and shape of the fitted curve.

UniProt P02791, sequence (P02791 whole entry, looked up): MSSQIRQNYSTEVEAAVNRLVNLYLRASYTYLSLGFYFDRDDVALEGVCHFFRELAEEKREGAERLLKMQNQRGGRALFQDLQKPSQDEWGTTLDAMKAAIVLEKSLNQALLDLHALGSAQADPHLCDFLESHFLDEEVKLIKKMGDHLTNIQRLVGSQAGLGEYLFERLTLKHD

| Compound | Potency |
| --- | --- |
| COc1cc(CNc2ncn[nH]2)ccc1OCc1ccccc1C | inconclusive: 28.2 µM [inhibitor, partial curve] |
| CCCCc1c(C)nn(-c2nnc3c4ccccc4n(C)c3n2)c1C | inconclusive: 10 µM [inhibitor, partial curve] |
| CN1Cc2c(N3CCOCC3)nc3sc(C(=O)c4ccc(Br)cc4)c(N)c3c2CC1(C)C | inconclusive: 15.8 µM [inhibitor, partial curve] |
| COC(=O)c1ccc(N=Nc2ccccc2)cc1 | inactive |
| COc1ccc(CCN(C)C(=O)C2CCCN(C3CCN(Cc4ccccc4)CC3)C2)cc1OC (stereo not drawn) | inactive |
| CC12COC3(C(=O)Nc4ccccc4)CC1CCC32C (stereo not drawn) | inconclusive: 22.4 µM [inhibitor, partial curve] |
| Cc1cc(Cl)c(S(=O)(=O)N2CCCC2)cc1OCC(=O)NC1CCCCC1 | inconclusive: 28.2 µM [inhibitor, partial curve] |
| COc1ccc(NC(=O)CN(C)C(=O)c2cc3c(s2)CCCCC3)cc1 | inconclusive: 25.1 µM [inhibitor, partial curve] |
| O=C(CNC(=O)c1ccccc1F)N/N=C/c1ccc2c(c1)OCO2 | inconclusive: 14.1 µM [inhibitor, partial curve] |
| COc1ccc(Cc2nnc(NC(=O)c3c(-c4ccccc4)noc3C)s2)cc1 | inactive |
| COc1cccc(CN2CCN(C3CCN(c4cccc(C)c4C)CC3)CC2CCO)c1 (stereo not drawn) | inconclusive: 39.8 µM [inhibitor, single point] |
| Cc1cc(C)cc(NS(=O)(=O)c2ccc3c(c2)C(C)(C)C(=O)N3C)c1 | inconclusive: 35.5 µM [inhibitor, partial curve] |
| O=C(CC1SCCNC1=O)Nc1ccc(Cl)cc1 (stereo not drawn) | inconclusive: 35.5 µM [inhibitor, partial curve] |
| C/C(=N\NC(=O)CNC(=O)c1ccc2c(c1)OCCO2)c1ccco1 | inconclusive: 35.5 µM [inhibitor, single point] |
| C/C(=N\N=C(/N)SC1CC(=O)N(c2ccc(Cl)cc2)C1=O)c1cccs1 (stereo not drawn) | inconclusive: 28.2 µM [inhibitor, partial curve] |
| Cc1c(-c2ccccc2)nc2ccccc2c1C(=O)O | inactive |
| COc1cc(-c2cn(S(=O)(=O)c3cccc4nsnc34)nc2N)cc(OC)c1OC | inconclusive: 44.7 µM [inhibitor, single point] |
| CC(C)(C)NC(=O)NC(=O)COC(=O)c1nc(-c2ccccc2)n(-c2cccc(C(F)(F)F)c2)n1 | inconclusive: 56.2 µM [inhibitor, single point] |
| Cc1cccc(-c2noc(-c3ccccc3C(=O)NCC3CCCO3)n2)c1 (stereo not drawn) | inconclusive: 39.8 µM [inhibitor, partial curve] |
| O=C1CSc2ccccc2N1Cc1ccccc1F | inconclusive: 20 µM [inhibitor, partial curve] |
| CC12CCC(c3c(C(=O)Nc4nccs4)nn(-c4ccccc4)c31)C2(C)C (stereo not drawn) | inconclusive: 50.1 µM [inhibitor, single point] |
| Cc1cc(C)cc(NC(=S)/C(=C(\[O-])c2ccc(Cl)s2)[n+]2cccc(C)c2)c1 | inconclusive: 12.6 µM [inhibitor, partial curve] |

| Compound | Potency |
| --- | --- |
| COC(=O)c1[nH]c2ccc(C)cc2c1NC(=O)CN1CCC(C)CC1 | inactive |
| Cc1ccc(OCc2nnc(SCC(=O)CC(=O)Nc3ccccc3)o2)cc1 | inconclusive: 14.1 µM [inhibitor, partial curve] |
| CCOC(=O)C1=C(C)NC(=O)NC1c1cn(-c2ccccc2)nc1-c1cccs1 (stereo not drawn) | inconclusive: 12.6 µM [inhibitor, partial curve] |
| CCCC1OC23CCCCC2C(C#N)(C(=N)O3)C1(C#N)C#N (stereo not drawn) | inactive |
| O=C(Nc1ccc2c(c1)OCO2)C1COc2ccccc2O1 (stereo not drawn) | inconclusive: 31.6 µM [inhibitor, partial curve] |
| CC(C)(C)c1ccc(-c2nnc3sc(-c4ccccn4)nn23)cc1 | inconclusive: 3.55 µM [inhibitor, full curve, poor fit] |
| O=C(CCC(=O)c1cccs1)Nc1ccc(F)c(F)c1F | inconclusive: 35.5 µM [inhibitor, partial curve] |
| CCC(=O)Nc1ccccc1-c1nc2ccccc2n(C(C)C(=O)Nc2ccc(OC)cc2)c1=O (stereo not drawn) | inconclusive: 25.1 µM [inhibitor, single point] |
| CCN(CC)c1ccc(O)c(C=Nc2ccc(C)c(C)c2)c1 | inconclusive: 35.5 µM [inhibitor, partial curve] |
| Cc1[nH]n(C(N)=S)c(=O)c1N=Nc1ccc(S(=O)(=O)N2CCCCCC2)cc1 | inconclusive: 31.6 µM [inhibitor, partial curve] |
| CCc1ccc(C2C(C(=O)Nc3ccc(Cl)cc3)=C(C)Nc3ncnn32)cc1 (stereo not drawn) | inactive |
| COc1cccc(-c2nc3c(c(C)nn3-c3ccccc3)c3cc(OC)c(OC)cc23)c1 | inactive |
| CC(=O)Nc1ccc(NS(=O)(=O)c2ccccc2)cc1 | inconclusive: 15.8 µM [inhibitor, partial curve] |
| CCN(CC)S(=O)(=O)c1cccc(NC(=O)C2SC(=Nc3ccc(C)cc3C)C(C(=O)NC(C)COC)=C2N)c1 (stereo not drawn) | inactive |
| Cc1ccc(O)c(C(=O)c2cnn(C(=O)Cc3csc(C)n3)c2)c1 | inconclusive: 39.8 µM [inhibitor, partial curve] |
| O=C(CSc1nnnn1-c1cccnc1)Nc1ccc(OCc2ccccc2)cc1 | inconclusive: 20 µM [inhibitor, partial curve] |
| CCOc1ccccc1C1C(C#N)=C(N)SC(N)=C1C#N | inconclusive: 35.5 µM [inhibitor, partial curve] |
| O=C(CN1CCOCC1)Nc1c2c(nc3ccccc13)N(Cc1ccccc1)CC2 | inactive |
| C=CCn1c(C)cc(C(=O)CSc2nc3ccccc3[nH]2)c1C | inconclusive: 28.2 µM [inhibitor, partial curve] |
| CC1Cc2cc(S(=O)(=O)CCC(=O)Nc3ccc(Cl)cc3F)ccc2N1C(=O)C1CC1 (stereo not drawn) | inactive |
| CCN(CC)C(=O)c1cccc(NC(=O)CC23CC4CC(CC(C4)C2)C3)c1 | inconclusive: 56.2 µM [inhibitor, single point] |
